Over roughly 33,000 sequences, “E-score (-0.5 to 0.5)” has its median near -0.04; the highest 2% begin near 0.36. Some of the results follow.
Molecular target: T1, Hmlalpha2 (UniProt P0CY09)
T1 sequence: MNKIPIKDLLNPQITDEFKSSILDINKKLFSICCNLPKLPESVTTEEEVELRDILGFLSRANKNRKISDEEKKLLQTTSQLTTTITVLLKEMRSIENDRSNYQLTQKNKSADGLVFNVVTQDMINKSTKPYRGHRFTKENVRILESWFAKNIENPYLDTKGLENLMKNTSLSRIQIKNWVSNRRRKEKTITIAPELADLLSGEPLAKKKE
Test: PBM E-score (8-mer binding enrichment) (E-score (-0.5 to 0.5)); higher = stronger / more preferred TF binding; most listed sequences are background and not binding sites
Details: protein concentration: 200 nM; construct: GST-full length
Method in brief: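 Yeast transcription factors, full-length or as DNA-binding domains, were expressed with a GST tag using PURExpress in vitro transcription/translation. At about 100-200 nM they were applied to universal all-10-mer Agilent arrays, double-stranded by primer extension on fresh or once-stripped slides. Fluorescent anti-GST detected bound protein, and masliner normalised the scans. E-scores for ungapped eight-base words, pooled with reverse complements, came from the Universal PBM Analysis Suite.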

Sequence | PBM E-score
ACCCCGAG | -0.134
CGGGAACG | -0.33
AACGCCTA | -0.0389
ACACACTC | 0.215
CATGAATA | 0.182
GACGCATA | 0.0115
ACTCCCTC | -0.321
ACTGACGG | -0.297
ACCATTGG | 0.0682
CTAACTAA | -0.00569
ATGCTCGC | -0.0941
AGCCTGAA | -0.141
AACTTGGC | -0.00553
ACGTCTAC | 0.173
CCAGAGCG | -0.245
AAATCCCC | -0.186
CAGGCAAA | -0.0461
GCGCTAAC | 0.143
ACCCCACG | -0.105
ATCGGAAC | -0.129
CCTGGACC | -0.0273
GTGGGCAA | -0.095
AAGTCGCC | -0.0902
CCACCTAA | -0.162

Sequence | PBM E-score
AGACCGCT | -0.0882
CATAACAA | 0.323
ACGGGTGG | -0.233
CTCAGAAG | -0.215
ACTCCGAC | -0.167
ATGCTAAC | 0.241
AAAATGTC | 0.12
CGCGCACA | 0.133
AGCTCTGG | -0.159
AAAATTGC | -0.0622
CATCGAGA | -0.124
CAACTTGC | -0.159
CGACCGAG | -0.232
GTGGGAGA | -0.224
ATGGTTCC | 0.0259
CAATGGTG | -0.109
CCGTCGGC | -0.208
GTTTCAGA | -0.0374
GACGTACA | 0.245
ACCCAAGA | -0.149
AGAGAGTC | -0.252
AGCGAGCC | -0.0977
AACCGCCA | -0.0627
CGTTACCC | -0.108

Sequence | PBM E-score
CTGCGGCA | -0.294
CCAGTCAC | -0.107
CAACCCGG | -0.143
ATAGTAAA | 0.327
TGATCAAA | -0.137
GAAATAGC | -0.0263
GGTGGTAC | -0.243
TATTTCGA | 0.182
AACCAACG | 0.0747
TCATCAGA | -0.134
ACCCATGC | 0.191
AGACACCG | -0.101
CTCTACCC | -0.26
CTCGATCC | -0.151
CTTTAAGC | -0.0889
ACGGGGCC | -0.27
AATACTAG | 0.21
CGACCAAC | 0.0667
GGGAACAC | 0.05
AAGATCTC | 0.0109
GATGGAGA | -0.167
CTCAGCTC | -0.277
CCTCCCTA | -0.229
GAGGAAGC | -0.231

Sequence | PBM E-score
ATGACAGC | -0.00948
ACTCCCGG | -0.199
CAGATGTC | -0.114
AAGTCACT | 0.055
CACACGTC | 0.166
AACGGAGC | -0.165
GGCTGCCA | -0.224
CCCCGTAC | -0.197
GGCAACAA | 0.0607
AGAGATTC | -0.0365
AGATCTGG | -0.17
AATTCCGA | 0.101
GAGATCCA | -0.2
GACAATGC | 0.14
CGCGATCC | -0.0112
TAGTTATA | 0.228
GTCAATTA | 0.183
ACGGTGCG | 0.134
ACACGAAA | 0.315
ACCGCCGA | -0.134
CTTACAAA | 0.232
GTCACTGA | -0.154

From the supplement of paper PMC3334620
